# Measurements from the antibiotic and cytotoxicity screens of Wong et al. (2023).
# The list shows a part of the results.
# Legend:
# HSkMC = human skeletal muscle cells; assay: cytotoxicity call (relative viability < 0.9); details: 10 µM
# HepG2 = assay: cytotoxicity call (relative viability < 0.9); details: 10 µM
# S. aureus RN4220 = assay: growth inhibition call (relative growth <= 0.2); details: 50 µM
Structure (SMILES),cytotoxicity call (HSkMC),cytotoxicity call (HepG2),growth inhibition call (S. aureus RN4220)
O=C(C[C@@H]1C[C@@H]2c3cc(NC(=O)Nc4ccc(C(F)(F)F)cc4)ccc3O[C@@H]2[C@H](CO)O1)NCc1ccc(Cl)cc1,inactive,inactive,inactive
CC(C)NC(=O)Nc1ccc2c(c1)C(=O)N([C@H](C)CO)C[C@H](C)[C@@H](CN(C)C(=O)Nc1ccccc1)OCCCC[C@@H](C)O2,inactive,inactive,inactive
C[C@@H]1CN([C@H](C)CO)C(=O)c2cc(NC(=O)C3CC3)ccc2O[C@@H]1CN(C)S(=O)(=O)c1ccc(Cl)cc1,inactive,inactive,inactive
CN1CCN(C(=O)C[C@@H]2C=C[C@@H](NC(=O)Cc3ccccn3)[C@@H](CO)O2)CC1,inactive,inactive,inactive
NC1CCN(Cc2nc3ccccc3[nH]2)CC1,inactive,inactive,inactive
COc1cccc(S(=O)(=O)Nc2ccc3c(c2)[C@H]2C[C@@H](CC(=O)NCCc4ccccc4)O[C@@H](CO)[C@H]2O3)c1,inactive,inactive,inactive
C[C@@H]1CN([C@H](C)CO)C(=O)c2cc(NC(=O)Cc3ccccc3)ccc2O[C@@H](C)CCCCO[C@H]1CN(C)Cc1ccc(Cl)c(Cl)c1,active,active,inactive
Cc1ccc(S(=O)(=O)N(C)C[C@@H]2OCCCC[C@@H](C)Oc3ccc(NC(=O)Nc4cccc5ccccc45)cc3C(=O)N([C@H](C)CO)C[C@@H]2C)cc1,inactive,inactive,inactive
COc1ccc2cc3[n+](cc2c1OC)CCc1cc2c(cc1-3)OCO2.[Cl-],inactive,active,inactive
CC(C)NC(=O)N[C@@H]1CC[C@@H](CCN)O[C@@H]1CO,inactive,inactive,inactive
O=C(C[C@H]1C[C@@H]2c3cc(NS(=O)(=O)c4ccccc4)ccc3O[C@@H]2[C@H](CO)O1)NC1CCCCC1,inactive,inactive,inactive
C[C@H](CO)N1C[C@H](C)[C@@H](CN(C)C(=O)Nc2ccccc2)OCCCC[C@H](C)Oc2ccc(NC(=O)CCC(F)(F)F)cc2C1=O,inactive,inactive,inactive
C[C@H](CO)N1C[C@H](C)[C@H](CN(C)C(=O)Nc2ccccc2)Oc2c(NC(=O)Nc3cccc4ccccc34)cccc2C1=O,inactive,inactive,inactive
CC(C)NC(=O)N[C@@H]1CC[C@H](CCN)O[C@@H]1CO,inactive,inactive,inactive
COc1ccc(NC(=O)Nc2ccc3c(c2)CC(=O)N([C@H](C)CO)C[C@@H](C)[C@@H](CN(C)Cc2ccc(Oc4ccccc4)cc2)O3)cc1,inactive,active,inactive
C[N+](C)(C)CCOC(N)=O,inactive,inactive,inactive
C[C@H](CO)N1C[C@H](C)[C@H](CN(C)C(=O)CCC(F)(F)F)OCCCC[C@H](C)Oc2ccc(NS(=O)(=O)c3ccc(Cl)cc3)cc2C1=O,inactive,inactive,inactive
C[C@@H]1CCCCO[C@@H](CN(C)Cc2ccncc2)[C@@H](C)CN([C@@H](C)CO)C(=O)c2cc(NC(=O)c3ccccc3)ccc2O1,inactive,inactive,inactive
C[C@@H]1CCCCO[C@@H](CN(C)S(=O)(=O)c2ccccc2)[C@@H](C)CN([C@H](C)CO)C(=O)c2cc(NC(=O)c3ccccc3)ccc2O1,inactive,inactive,inactive
CNC[C@@H](O)[C@@H](O)[C@@H](O)[C@@H](O)CO,inactive,inactive,inactive
COc1ccc(S(=O)(=O)Nc2ccc3c(c2)C(=O)N([C@@H](C)CO)C[C@H](C)[C@H](CN(C)S(=O)(=O)c2ccc(Cl)cc2)OCCCC[C@H](C)O3)cc1,inactive,inactive,inactive
COc1ccc(CN(C)C[C@H]2Oc3ccc(NC(=O)Nc4ccc(C(F)(F)F)cc4)cc3CC(=O)N([C@@H](C)CO)C[C@H]2C)cc1,active,active,inactive
NCc1ccccc1-n1cccn1,inactive,inactive,inactive
C[C@H](CO)N1C[C@H](C)[C@@H](CN(C)S(=O)(=O)c2ccc(F)cc2)Oc2cc(Br)ccc2S1(=O)=O,inactive,inactive,inactive
Cc1ccc(S(=O)(=O)N(C)C[C@@H]2OCCCC[C@@H](C)Oc3ccc(NC(=O)Cc4ccccc4)cc3C(=O)N([C@@H](C)CO)C[C@@H]2C)cc1,inactive,inactive,inactive
C[C@H](CO)N1C[C@H](C)[C@@H](CN(C)Cc2ccncc2)Oc2ccc(NC(=O)Nc3ccc(C(F)(F)F)cc3)cc2CC1=O,active,active,inactive
